Hit rate of the full screen: of about 390,000 compounds, about 930 (0.24%) were called active. The inconclusive results got no clear call from the source; some entries with a clear call stand among them for comparison. The call rests on the fitted dose curve; in most records, active means well fitted activation curve with a large enough effect; inconclusive means small, poorly fitted or top-dose-only effect; inactive means no such curve, though single readings can be large or run the other way. Where the call is inconclusive, the potency comes from a doubtful curve fit.
Experiment: qHTS for Suppressors of FUS Proteinopathy: Primary screen using FUS-linked yeast assay; further: nearly all actives have a fitted effect of over 55% in size;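 on growth rescue (activation): plate controls were DMSO vehicle for no effect and reference control for full effect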
Conditions: S. cerevisiae FUS-expressing, OD600, 24 h; Potency: growth rescue; growth rescue (activation): at 76.6 µM (top of the series)
Summary of the method: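 Galactose (2%) drives FUS expression in yeast precultured in raffinose; seeding density OD 0.005. Test compounds incubated 24hr at 30C and 99% humidity before absorbance at 600 nm was measured.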
Potency means the concentration at half of the fitted maximal effect; tags describe the fitted curve by direction and shape.

SMILES	Potency	growth rescue (activation)
O=C(/C=C/c1cccc(Cl)c1)Nn1c(-c2cccs2)nc2ccccc2c1=O	inactive	–
COC(=O)c1sc2cccc(F)c2c1S(=O)(=O)Nc1cc(C)c(Cl)cc1OC	inconclusive: 35.5 µM [activator, partial curve, poor fit]	–
COc1ccc(-n2c(O)c(/C=N/NS(=O)(=O)c3ccc(C)cc3)c3ccccc3c2=O)cc1OC	inconclusive: 12.6 µM [activator, partial curve, poor fit]	–
COc1ccccc1-c1nn(-c2ccccc2)cc1C(=O)N1CCc2ccccc2C1	inconclusive: 35.5 µM [activator, single point]	–
CCCNC(=O)C1CCC(Cn2c(=O)c3sccc3n(CC(=O)N3CCCC3)c2=O)CC1 (configuration not stated)	inactive	–
Clc1ccc([C@H]2OC[C@@]3(CNCCc4c[nH]c5ccccc45)CS[C@H](c4ccc(Cl)cc4)N23)cc1	inactive	–
N#CC1=C(N)Oc2c(ccc3ccccc23)C1c1cccs1 (configuration not stated)	–	inconclusive: 76.3% [activator]
COC(=O)c1ccc(NC(=O)NC(C)c2c(-n3cccc3)sc(C)c2C)cc1 (configuration not stated)	inconclusive: 35.5 µM [activator, single point]	–
COc1ccc(-c2nnn(CC(=O)NCc3ccc4c(c3)OCO4)n2)cc1OC	inactive	–
COc1ccc(C2=Nc3nc(-c4ccccc4)cn3C(c3ccc(OC)cc3)C2)cc1 (configuration not stated)	inconclusive: 50.1 µM [activator, single point]	–
COC(=O)[C@]12CCCCC=C1N(Cc1ccccc1)C(=O)[C@H](CC(=O)N1CCN(C(=O)c3ccco3)CC1)C2	inconclusive: 7.94 µM [activator, full curve]	–
CCOC(=O)c1cnc(SC)nc1Sc1cc(Cl)ccc1Cl	inconclusive: 1.58 µM [activator, full curve, poor fit]	–
COc1cc(NC(=O)c2ccco2)c(C(=O)OCC(=O)c2c[nH]c3ccccc23)cc1OC	inactive	–
CCc1ccc(NC(=S)N(Cc2ccc(Cl)cc2)Cc2ccc(C(=O)O)cc2)cc1	inconclusive: 28.2 µM [activator, partial curve, poor fit]	–
Cc1ccc([C@H]2N[C@]3(CCCN(Cc4ccc(F)cc4)C3=O)[C@H]3C(=O)N(Cc4ccccc4)C(=O)[C@@H]23)cc1	inconclusive: 22.4 µM [activator, partial curve]	–
COc1ccc(NC(=O)c2c(NCc3cccs3)sc3c2CCCCC3)c(OC)c1	inconclusive: 20 µM [activator, partial curve]	–
CC(/C=C1\SC(=S)N(NC(=O)c2ccc(C)cc2)C1=O)=C\c1ccccc1	inconclusive: 17.8 µM [activator, partial curve, poor fit]	–
